# Source: the supplement of paper PMC8728848
# The other results are listed elsewhere or left out.
# B1: AAL (Agrocybe aegerita), Q6WY08 (protein)
# chain: MQGVNIYNISAGTSVDLAAPVTTGDIVTFFSSALNLNAGAGNPNNTTLNLFAENGAYLLHIAFRLQENVIIFNSRQPDGPWLVEQRVSDVANQFAGIDGKAMVTVFDHGDKYQVVINEKTVIQYTKQISGLTLSLSYNATEETSIFSTVVEAVTYTGLALEHHHHHH
# How the values were obtained:
# Assay in all cases: glycan array binding signal (z-score within array); higher = stronger binding
# Details in all cases: glycan notation: IUPAC condensed, linker removed
# [1] = molecular target: Gal(b1-4)GlcNAc(b1-3)Gal(b1-4)Glc
# Outline: (§1)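 Glycan array data came from 3228 arrays in the Consortium for Functional Glycomics database, and only arrays with an available protein sequence were kept. Glycan names were put into IUPAC-condensed notation, and columns mapping to the same glycan were averaged. The binding signal is a within-array Z-score, averaged across arrays of one protein sequence run at different concentrations or buffers and across linkers. A negative Z-score can be read as non-binding.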
# [2] = molecular target: Gal(b1-4)GlcNAc(b1-3)Gal(b1-4)GlcNAc
# Outline: as §1
# [3] = molecular target: Gal(b1-4)GlcNAc(b1-3)Gal(b1-4)GlcNAc(b1-2)Man(a1-3)[Gal(b1-4)GlcNAc(b1-3)Gal(b1-4)GlcNAc(b1-2)Man(a1-6)]Man(b1-4)GlcNAc(b1-4)GlcNAc
# Outline: as §1
# [4] = molecular target: Gal(b1-4)GlcNAc(b1-3)Gal(b1-4)GlcNAc(b1-2)Man(a1-3)[Gal(b1-4)GlcNAc(b1-3)Gal(b1-4)GlcNAc(b1-2)Man(a1-6)]Man(b1-4)GlcNAc(b1-4)[Fuc(a1-6)]GlcNAc
# Outline: as §1
# [5] = molecular target: Gal(b1-4)GlcNAc(b1-3)Gal(b1-4)GlcNAc(b1-2)[Gal(b1-4)GlcNAc(b1-3)Gal(b1-4)GlcNAc(b1-6)]Man(a1-6)[Gal(b1-4)GlcNAc(b1-3)Gal(b1-4)GlcNAc(b1-2)Man(a1-3)]Man(b1-4)GlcNAc(b1-4)GlcNAc
# Outline: as §1
# [6] = molecular target: Gal(b1-4)GlcNAc(b1-3)Gal(b1-4)GlcNAc(b1-2)[Gal(b1-4)GlcNAc(b1-3)Gal(b1-4)GlcNAc(b1-6)]Man(a1-6)[Gal(b1-4)GlcNAc(b1-3)Gal(b1-4)GlcNAc(b1-2)Man(a1-3)]Man(b1-4)GlcNAc(b1-4)[Fuc(a1-6)]GlcNAc
# Outline: as §1
# [7] = molecular target: Gal(b1-4)GlcNAc(b1-3)Gal(b1-4)GlcNAc(b1-3)Gal(b1-4)GlcNAc
# Outline: as §1
# [8] = molecular target: Gal(b1-4)GlcNAc(b1-3)Gal(b1-4)GlcNAc(b1-3)Gal(b1-4)GlcNAc(b1-2)Man(a1-3)[Gal(b1-4)GlcNAc(b1-3)Gal(b1-4)GlcNAc(b1-3)Gal(b1-4)GlcNAc(b1-2)Man(a1-6)]Man(b1-4)GlcNAc(b1-4)GlcNAc
# Outline: as §1
# [9] = molecular target: Gal(b1-4)GlcNAc(b1-3)Gal(b1-4)GlcNAc(b1-3)Gal(b1-4)GlcNAc(b1-2)Man(a1-3)[Gal(b1-4)GlcNAc(b1-3)Gal(b1-4)GlcNAc(b1-3)Gal(b1-4)GlcNAc(b1-2)Man(a1-6)]Man(b1-4)GlcNAc(b1-4)[Fuc(a1-6)]GlcNAc
# Outline: as §1
# [10] = molecular target: Gal(b1-4)GlcNAc(b1-3)Gal(b1-4)GlcNAc(b1-3)Gal(b1-4)GlcNAc(b1-2)[Gal(b1-4)GlcNAc(b1-3)Gal(b1-4)GlcNAc(b1-3)Gal(b1-4)GlcNAc(b1-6)]Man(a1-6)[Gal(b1-4)GlcNAc(b1-3)Gal(b1-4)GlcNAc(b1-3)Gal(b1-4)GlcNAc(b1-2)Man(a1-3)]Man(b1-4)GlcNAc(b1-4)[Fuc(a1-6)]GlcNAc
# Outline: as §1
# [11] = molecular target: Gal(b1-4)GlcNAc(b1-3)Gal(b1-4)GlcNAc(b1-3)Gal(b1-4)GlcNAc(b1-3)Gal(b1-4)GlcNAc(b1-2)Man(a1-3)[Gal(b1-4)GlcNAc(b1-3)Gal(b1-4)GlcNAc(b1-3)Gal(b1-4)GlcNAc(b1-3)Gal(b1-4)GlcNAc(b1-2)Man(a1-6)]Man(b1-4)GlcNAc(b1-4)GlcNAc
# Outline: as §1
# [12] = molecular target: Gal(b1-4)GlcNAc(b1-3)Gal(b1-4)GlcNAc(b1-3)Gal(b1-4)GlcNAc(b1-3)Gal(b1-4)GlcNAc(b1-2)Man(a1-3)[Gal(b1-4)GlcNAc(b1-3)Gal(b1-4)GlcNAc(b1-3)Gal(b1-4)GlcNAc(b1-3)Gal(b1-4)GlcNAc(b1-2)Man(a1-6)]Man(b1-4)GlcNAc(b1-4)[Fuc(a1-6)]GlcNAc
# Outline: as §1
# [13] = molecular target: Gal(b1-4)GlcNAc(b1-3)Gal(b1-4)GlcNAc(b1-3)Gal(b1-4)GlcNAc(b1-3)Gal(b1-4)GlcNAc(b1-2)[Gal(b1-4)GlcNAc(b1-3)Gal(b1-4)GlcNAc(b1-3)Gal(b1-4)GlcNAc(b1-3)Gal(b1-4)GlcNAc(b1-6)]Man(a1-6)[Gal(b1-4)GlcNAc(b1-3)Gal(b1-4)GlcNAc(b1-3)Gal(b1-4)GlcNAc(b1-3)Gal(b1-4)GlcNAc(b1-2)Man(a1-3)]Man(b1-4)GlcNAc(b1-4)[Fuc(a1-6)]GlcNAc
# Outline: as §1
# [14] = molecular target: Gal(b1-4)GlcNAc(b1-3)Gal(b1-4)GlcNAc(b1-3)Gal(b1-4)GlcNAc(b1-3)Gal(b1-4)GlcNAc(b1-3)Gal(b1-4)GlcNAc(b1-2)Man(a1-3)[Gal(b1-4)GlcNAc(b1-3)Gal(b1-4)GlcNAc(b1-3)Gal(b1-4)GlcNAc(b1-3)Gal(b1-4)GlcNAc(b1-3)Gal(b1-4)GlcNAc(b1-2)Man(a1-6)]Man(b1-4)GlcNAc(b1-4)GlcNAc
# Outline: as §1
# [15] = molecular target: Gal(b1-4)GlcNAc(b1-3)Gal(b1-4)GlcNAc(b1-3)Gal(b1-4)GlcNAc(b1-3)Gal(b1-4)GlcNAc(b1-3)Gal(b1-4)GlcNAc(b1-2)Man(a1-3)[Gal(b1-4)GlcNAc(b1-3)Gal(b1-4)GlcNAc(b1-3)Gal(b1-4)GlcNAc(b1-3)Gal(b1-4)GlcNAc(b1-3)Gal(b1-4)GlcNAc(b1-2)Man(a1-6)]Man(b1-4)GlcNAc(b1-4)[Fuc(a1-6)]GlcNAc
# Outline: as §1
# [16] = molecular target: Gal(b1-4)GlcNAc(b1-3)Gal(b1-4)GlcNAc(b1-3)Gal(b1-4)GlcNAc(b1-3)Gal(b1-4)GlcNAc(b1-3)Gal(b1-4)GlcNAc(b1-2)[Gal(b1-4)GlcNAc(b1-3)Gal(b1-4)GlcNAc(b1-3)Gal(b1-4)GlcNAc(b1-3)Gal(b1-4)GlcNAc(b1-3)Gal(b1-4)GlcNAc(b1-6)]Man(a1-6)[Gal(b1-4)GlcNAc(b1-3)Gal(b1-4)GlcNAc(b1-3)Gal(b1-4)GlcNAc(b1-3)Gal(b1-4)GlcNAc(b1-3)Gal(b1-4)GlcNAc(b1-2)Man(a1-3)]Man(b1-4)GlcNAc(b1-4)[Fuc(a1-6)]GlcNAc
# Outline: as §1
# [17] = molecular target: Gal(b1-4)GlcNAc(b1-3)Gal(b1-4)GlcNAc(b1-3)Gal(b1-4)GlcNAc(b1-3)Gal(b1-4)GlcNAc(b1-3)Gal(b1-4)GlcNAc(b1-3)Gal(b1-4)GlcNAc(b1-2)Man(a1-3)[Gal(b1-4)GlcNAc(b1-3)Gal(b1-4)GlcNAc(b1-3)Gal(b1-4)GlcNAc(b1-3)Gal(b1-4)GlcNAc(b1-3)Gal(b1-4)GlcNAc(b1-3)Gal(b1-4)GlcNAc(b1-2)Man(a1-6)]Man(b1-4)GlcNAc(b1-4)GlcNAc
# Outline: as §1
# [18] = molecular target: Gal(b1-4)GlcNAc(b1-3)Gal(b1-4)GlcNAc(b1-3)GalNAc
# Outline: as §1
# [19] = molecular target: Gal(b1-4)GlcNAc(b1-3)Gal(b1-4)GlcNAc(b1-3)[Gal(b1-4)GlcNAc(b1-3)Gal(b1-4)GlcNAc(b1-6)]GalNAc
# Outline: as §1
# [20] = molecular target: Gal(b1-4)GlcNAc(b1-3)Gal(b1-4)GlcNAc(b1-6)[Gal(b1-3)]GalNAc
# Outline: as §1
# [21] = molecular target: Gal(b1-4)GlcNAc(b1-3)Gal(b1-4)[Fuc(a1-3)]GlcNAc(b1-3)Gal(b1-4)[Fuc(a1-3)]GlcNAc
# Outline: as §1
# [22] = molecular target: Gal(b1-4)GlcNAc(b1-3)GalNAc
# Outline: as §1
# [23] = molecular target: Gal(b1-4)GlcNAc(b1-3)[Fuc(a1-3)GlcNAc(b1-6)]Gal(b1-4)Glc
# Outline: as §1
binder,measurement,setting,value
B1,glycan array binding signal (z-score),[1],-0.142
same,glycan array binding signal (z-score),[2],-0.152
same,glycan array binding signal (z-score),[3],-0.106
same,glycan array binding signal (z-score),[4],-0.117
same,glycan array binding signal (z-score),[5],-0.114
same,glycan array binding signal (z-score),[6],-0.085
same,glycan array binding signal (z-score),[7],-0.158
same,glycan array binding signal (z-score),[8],-0.099
same,glycan array binding signal (z-score),[9],-0.06
same,glycan array binding signal (z-score),[10],0.042
same,glycan array binding signal (z-score),[11],0.041
same,glycan array binding signal (z-score),[12],-0.096
same,glycan array binding signal (z-score),[13],-0.008
same,glycan array binding signal (z-score),[14],-0.096
same,glycan array binding signal (z-score),[15],-0.099
same,glycan array binding signal (z-score),[16],0.652
same,glycan array binding signal (z-score),[17],-0.099
same,glycan array binding signal (z-score),[18],-0.131
same,glycan array binding signal (z-score),[19],-0.125
same,glycan array binding signal (z-score),[20],-0.154
same,glycan array binding signal (z-score),[21],-0.155
same,glycan array binding signal (z-score),[22],-0.152
same,glycan array binding signal (z-score),[23],-0.135
